In the supplement of paper PMC9446081:
Among all 39,000 compounds or so, about 220 (0.56%) showed activity. Some of the results follow.

test system: Escherichia coli K-12 BW25113; assay: relative growth (OD600 normalised to plate interquartile mean) (fraction); higher = less growth inhibition, active = 0.2 or less; conditions: 50 µM; LB; incubation time: overnight (16-24 h)
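Also: static incubation at 37 °C against the wild-type strain, values averaged over two biological replicates.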

How did the relative growth turn out when `C[C@@H]1CN([C@@H](C)CO)C(=O)c2cccc(NC(=O)CCCCCC(=O)Nc3ccccc3N)c2O[C@@H]1CN(C)Cc1ccc(-c2ccccc2)cc1` was run?
Its relative growth is inactive: 0.92.

With `COc1cccc(NC(=O)N(C)C[C@H]2Oc3cc(C#Cc4ccncc4)ccc3S(=O)(=O)N([C@@H](C)CO)C[C@H]2C)c1` as the molecule, how does the relative growth read?
The relative growth was inactive: 0.997.

With `COc1ccc(CN(C)C[C@@H]2OCCCC[C@H](C)Oc3ccc(NS(=O)(=O)c4ccc(OC)cc4)cc3C(=O)N([C@H](C)CO)C[C@@H]2C)cc1` as the molecule, how does the relative growth read?
The relative growth was inactive: 0.996.

`COC(=O)C[C@@H]1CC[C@H]2[C@@H](COC[C@@H](O)CN2S(=O)(=O)c2ccc(F)cc2)O1` was tested. Which relative growth did it give?
Its relative growth is inactive: 0.976.

`C[C@@H]1CCCCO[C@H](CN(C)CC2CC2)[C@@H](C)CN([C@H](C)CO)C(=O)c2cc(NC(=O)Nc3cccc4ccccc34)ccc2O1` was tested. Which relative growth did it give?
The relative growth was inactive: 0.978.

With `CCOC(=O)N(C)C[C@H]1OCc2cnnn2CCCC(=O)N([C@H](C)CO)C[C@@H]1C` as the molecule, how does the relative growth read?
The relative growth was inactive: 1.01.

`C[C@H]1CCCCO[C@H](CN(C)S(=O)(=O)c2ccccc2)[C@@H](C)CN([C@@H](C)CO)C(=O)c2cc(NC(=O)CCC(F)(F)F)ccc2O1` was tested. Which relative growth did it give?
Its relative growth is inactive: 0.982.

Which relative growth does the source give for `C[C@@H]1CCCCO[C@H](CN(C)S(=O)(=O)c2ccccc2)[C@@H](C)CN([C@@H](C)CO)C(=O)c2cc(NC(=O)Nc3ccc4c(c3)OCO4)ccc2O1` here?
The relative growth was inactive: 1.02.

`C[C@@H]1CCCCO[C@@H](CN(C)Cc2ccc(C(=O)O)cc2)[C@@H](C)CN([C@@H](C)CO)C(=O)c2cc(NS(=O)(=O)c3ccccc3)ccc2O1` was tested. Which relative growth did it give?
The relative growth was inactive: 1.03.

How did the relative growth turn out when `CS(=O)(=O)Nc1ccc2c(c1)[C@H]1C[C@@H](CC(=O)NCC3CC3)O[C@@H](CO)[C@H]1O2` was run?
The relative growth was inactive: 1.01.

`C[C@H](CO)N1C[C@H](C)[C@@H](CN(C)Cc2ccc3c(c2)OCO3)OCc2ccccc2-c2c(n(C)c3ccccc23)C1=O` was tested. Which relative growth did it give?
Its relative growth is inactive: 0.997.

Which relative growth does the source give for `CCNC(=O)C[C@@H]1C=C[C@H](NC(=O)C2CCOCC2)[C@H](CO)O1` here?
Its relative growth is inactive: 0.986.

For `C[C@H](CO)N1C[C@H](C)[C@@H](CN(C)S(=O)(=O)c2ccc(Cl)cc2)Oc2ccc(NC(=O)CCN3CCOCC3)cc2CC1=O`, which relative growth is on record?
Its relative growth is inactive: 0.987.

With `C[C@H](CO)N1C[C@H](C)[C@@H](CN(C)C(=O)NC2CCCCC2)OCCCC[C@H](C)Oc2ccc(NS(=O)(=O)c3cccs3)cc2C1=O` as the molecule, how does the relative growth read?
The relative growth was inactive: 1.02.

Which relative growth does the source give for `C[C@H](CO)N1C[C@H](C)[C@H](CN(C)CC2CC2)Oc2c(NS(=O)(=O)c3cn(C)cn3)cccc2C1=O` here?
Its relative growth is inactive: 0.991.

How did the relative growth turn out when `COc1cccc(S(=O)(=O)N(C)C[C@@H]2Oc3ncc(-c4cccc(C(=O)N(C)C)c4)cc3C(=O)N([C@@H](C)CO)C[C@H]2C)c1` was run?
Its relative growth is inactive: 1.04.

With `COC(=O)[C@H](Cc1ccccc1)N1CC(/C=C/C2CC2)=C[C@@H]1[C@@H](O)CCn1cc(-c2ccc(C(=O)NO)cc2)nn1` as the molecule, how does the relative growth read?
The relative growth was inactive: 1.02.

Which relative growth does the source give for `C[C@@H]1CN([C@@H](C)CO)C(=O)c2cc(NC(=O)Nc3cccc4ccccc34)ccc2O[C@@H](C)CCCCO[C@@H]1CN(C)S(=O)(=O)c1ccccc1` here?
The relative growth was inactive: 1.01.

Which relative growth does the source give for `COc1ccc2cc1Oc1ccc(cc1)CC1c3cc(c(OC)cc3CCN1C)Oc1c(OC)c(OC)cc3c1C(C2)N(C)CC3` (centres undefined) here?
The relative growth was inactive: 0.94.

How did the relative growth turn out when `Cc1ccc(S(=O)(=O)N(C)C[C@@H]2Oc3c(NS(=O)(=O)c4c(C)noc4C)cccc3C(=O)N([C@@H](C)CO)C[C@@H]2C)cc1` was run?
Its relative growth is inactive: 1.

With `C[C@@H]1CCCCO[C@H](CN(C)C(=O)NC2CCCCC2)[C@@H](C)CN([C@H](C)CO)C(=O)c2cc(NC(=O)Nc3cccc4ccccc34)ccc2O1` as the molecule, how does the relative growth read?
The relative growth was inactive: 1.02.

Which relative growth does the source give for `C[C@@H]1CN([C@@H](C)CO)C(=O)Cc2cc(NC(=O)C3CCCCC3)ccc2O[C@@H]1CN(C)S(C)(=O)=O` here?
Its relative growth is inactive: 0.989.

How did the relative growth turn out when `Cc1noc(C)c1S(=O)(=O)Nc1ccc2c(c1)C(=O)N([C@H](C)CO)C[C@@H](C)[C@@H](CN(C)C(=O)Nc1ccccc1)OCCCC[C@@H](C)O2` was run?
The relative growth was inactive: 1.03.

`CC(C)NC(=O)Nc1ccc2c(c1)CC(=O)N([C@@H](C)CO)C[C@H](C)[C@@H](CN(C)S(=O)(=O)c1ccc(F)cc1)O2` was tested. Which relative growth did it give?
The relative growth was inactive: 1.02.

Which relative growth does the source give for `COc1ccc(Oc2cc(NCCC(F)(F)F)c3ncc(-c4ccc(C(=O)NC5CC5)c(C)c4)n3n2)c(F)c1F` here?
Its relative growth is inactive: 0.999.

For `C[C@@H]1CCCCO[C@@H](CN(C)C(=O)Cc2ccccc2)[C@@H](C)CN([C@@H](C)CO)C(=O)c2cc(NC(=O)Cc3ccccc3)ccc2O1`, which relative growth is on record?
Its relative growth is inactive: 1.02.

For `CO[C@@H]1CN(C)C(=O)c2ccc(NC(=O)Nc3ccccc3F)cc2OC[C@H](C)N(Cc2ccccc2C(=O)O)C[C@H]1C`, which relative growth is on record?
The relative growth was inactive: 0.991.

For `C[C@H](CO)N1C[C@H](C)[C@H](CN(C)S(=O)(=O)c2ccccc2)Oc2ccc(NS(=O)(=O)c3ccc(F)cc3)cc2C1=O`, which relative growth is on record?
The relative growth was inactive: 1.01.

With `O=C(O)c1cc(=O)c2cccc(O)c2[nH]1` as the molecule, how does the relative growth read?
The relative growth was inactive: 1.

With `C[C@H](CO)N1C[C@H](C)[C@@H](CN(C)C(=O)Nc2cccc3ccccc23)OCCCC[C@H](C)Oc2ccc(N(C)C)cc2C1=O` as the molecule, how does the relative growth read?
Its relative growth is inactive: 1.02.

For `Cc1ccc(C(=O)Oc2ccc(/C=N/c3cccs3)cc2)cc1`, which relative growth is on record?
The relative growth was inactive: 0.929.

For `C[C@@H]1CCCCO[C@@H](CN(C)C(=O)Nc2ccc(C(F)(F)F)cc2)[C@H](C)CN([C@@H](C)CO)C(=O)c2cc(NC(=O)Cc3ccccc3)ccc2O1`, which relative growth is on record?
Its relative growth is inactive: 1.

With `O=C1CCCNc2ccc(Cl)cc21` as the molecule, how does the relative growth read?
Its relative growth is inactive: 0.864.

Which relative growth does the source give for `C[C@H]1CN([C@@H](C)CO)C(=O)Cc2cc(NC(=O)CCN3CCOCC3)ccc2O[C@@H]1CN(C)Cc1ccncc1` here?
The relative growth was inactive: 0.995.

Which relative growth does the source give for `O=C(C[C@@H]1C[C@H]2c3cc(NS(=O)(=O)c4ccc(F)cc4)ccc3O[C@H]2[C@H](CO)O1)N1CCOCC1` here?
The relative growth was inactive: 0.923.

How did the relative growth turn out when `CC1=C(C(=O)O)N2C(=O)[C@@H](NC(=O)[C@@H](N)c3ccccc3)[C@H]2SC1` was run?
Its relative growth is inactive: 0.998.

How did the relative growth turn out when `C[C@H]1CCCCO[C@@H](CN(C)S(=O)(=O)c2cn(C)cn2)[C@@H](C)CN([C@@H](C)CO)C(=O)c2cc(NS(=O)(=O)c3ccccc3)ccc2O1` was run?
Its relative growth is inactive: 0.995.

Which relative growth does the source give for `C[C@@H]1CCCCO[C@H](CN(C)S(=O)(=O)c2ccccc2)[C@@H](C)CN([C@@H](C)CO)C(=O)c2cc(NC(=O)CCC(F)(F)F)ccc2O1` here?
The relative growth was inactive: 1.

Which relative growth does the source give for `CN1C(=O)c2cc(NC(=O)c3cccs3)ccc2OC[C@H]2O[C@@H](CC(=O)NCCN3CCCCC3)CC[C@H]21` here?
The relative growth was inactive: 0.991.

With `O=C(C[C@H]1CC[C@H](NC(=O)c2ccc(F)cc2)[C@@H](CO)O1)NCc1ccncn1` as the molecule, how does the relative growth read?
The relative growth was inactive: 1.04.

Which relative growth does the source give for `O=C(O)[C@]1(O)C[C@@H](O)[C@@H](O)[C@H](O)C1` here?
Its relative growth is inactive: 0.958.

Which relative growth does the source give for `CC(=O)N1Cc2cc(C(=O)NCC(F)(F)F)nc(-c3cccc(-c4cc5ccccc5o4)c3)c2[C@H]1CCO` here?
Its relative growth is inactive: 0.981.

How did the relative growth turn out when `Cc1ccc(S(=O)(=O)NCC[C@@H]2CC[C@@H](NS(=O)(=O)c3ccccc3Cl)[C@@H](CO)O2)cc1` was run?
Its relative growth is inactive: 0.983.

`CN(C)CC(=O)N1[C@@H]2c3ccc(-c4ccccc4)c(=O)n3C[C@H]1[C@H](CO)[C@H]2C(=O)N1CCN(C)CC1` was tested. Which relative growth did it give?
The relative growth was inactive: 1.

How did the relative growth turn out when `O=C(O)[C@]1(O)C[C@H](O)[C@@H](O)[C@@H](O)C1` was run?
The relative growth was inactive: 0.958.

Which relative growth does the source give for `C[C@H]1CN([C@@H](C)CO)C(=O)c2cc(NC(=O)CCCN(C)C)ccc2O[C@@H]1CN(C)S(=O)(=O)c1cccs1` here?
The relative growth was inactive: 1.03.

`Cc1ccc(S(=O)(=O)N(C)C[C@H]2Oc3c(NC(=O)c4ccncc4)cccc3C(=O)N([C@@H](C)CO)C[C@@H]2C)cc1` was tested. Which relative growth did it give?
Its relative growth is inactive: 0.986.

How did the relative growth turn out when `C[C@H]1CN([C@@H](C)CO)C(=O)Cc2cc(NC(=O)C3CCCCC3)ccc2O[C@H]1CN(C)Cc1ccc(Oc2ccccc2)cc1` was run?
Its relative growth is inactive: 1.02.

`C[C@@H]1CN([C@@H](C)CO)C(=O)Cc2cc(NC(=O)Cn3cnnn3)ccc2O[C@@H]1CN(C)C(=O)Nc1ccccc1` was tested. Which relative growth did it give?
Its relative growth is inactive: 1.02.

For `CN1CCN(C(=O)C[C@@H]2C=C[C@@H](NC(=O)Cc3ccccn3)[C@H](CO)O2)CC1`, which relative growth is on record?
The relative growth was inactive: 1.

`Cc1ccc(S(=O)(=O)Nc2ccc3c(c2)C(=O)N([C@H](C)CO)C[C@H](C)[C@H](CN(C)Cc2ccc(-c4ccccc4)cc2)O3)cc1` was tested. Which relative growth did it give?
The relative growth was inactive: 1.01.

Which relative growth does the source give for `C[C@@H]1CCCCO[C@H](CN(C)C(=O)CCC(F)(F)F)[C@H](C)CN([C@@H](C)CO)C(=O)c2cc(NC(=O)CCCCCC(=O)Nc3ccccc3N)ccc2O1` here?
The relative growth was inactive: 1.03.

For `C[C@H]1CN([C@@H](C)CO)C(=O)Cc2cc(NC(=O)Cn3cnnn3)ccc2O[C@H]1CN(C)S(=O)(=O)c1cccs1`, which relative growth is on record?
The relative growth was inactive: 0.972.

For `COc1ccc(S(=O)(=O)Nc2ccc3c(c2)CC(=O)N([C@H](C)CO)C[C@@H](C)[C@@H](CN(C)S(=O)(=O)c2cn(C)cn2)O3)cc1`, which relative growth is on record?
The relative growth was inactive: 1.01.

For `CC(=O)N[C@@H]1[C@@H](O)[C@H](O)[C@@H](CO)O[C@H]1O`, which relative growth is on record?
Its relative growth is inactive: 0.95.

How did the relative growth turn out when `C[C@H](CO)N1C[C@H](C)[C@H](CN(C)Cc2ccc(C(=O)Nc3ccccc3N)cc2)Oc2c(NC(=O)Nc3ccc(F)cc3)cccc2C1=O` was run?
The relative growth was inactive: 1.03.

With `COc1cc(C2Oc3cc(C4Oc5cc(O)cc(O)c5C(=O)C4O)ccc3OC2CO)ccc1O` (centres undefined) as the molecule, how does the relative growth read?
Its relative growth is inactive: 0.94.

How did the relative growth turn out when `COc1cccc(C(=O)Nc2ccc3c(c2)C(=O)N(C)[C@H]2CC[C@@H](CC(=O)NCC4CC4)O[C@H]2CO3)c1` was run?
The relative growth was inactive: 0.991.

How did the relative growth turn out when `COc1ccc(S(=O)(=O)Nc2ccc3c(c2)C(=O)N([C@@H](C)CO)C[C@@H](C)[C@@H](CN(C)C(=O)Nc2ccccc2)OCCCC[C@H](C)O3)cc1` was run?
Its relative growth is inactive: 1.02.
